According to the supplement of paper PMC12217912:
The list shows a part of the results. The full chains were built here from the parent and the listed change. Values near 0.05 are background.

B1: TEV protease; numbered along this chain (parent)
chain: MGESLFKGPRDYNPISSSICHLTNESDGHTTSLYGIGFGPFIITNKHLFRRNNGTLVVQSLHGVFKVKDTTTLQQHLVDGRDMIIIRMPKDFPPFPQKLKFREPQREERICLVTTNFQTKSMSSMVSDTSCTFPSGDGIFWKHWIQTKDGQCGSPLVSTRDGFIVGIHSASNFTNTNNYFTSVPKNFMELLTNQEAQQWVSGWRLNADSVLWGGHKVFMVKPEEPFQPVKEATQL

Variants of: B1
Assay: raw area under fraction-flipped curve 0-4 h after induction (AUC4h, not background-subtracted), DNA-recorder readout of cleavage of the substrate (dimensionless); higher = more cleavage of the substrate by the protease variant
Conditions: temperature: 34 °C; time window: 0-4 h after rhamnose induction
Procedure: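 In vivo DNA recorder in E. coli TOP10(DE3) ΔrhaA at 34 °C. Each TEVp single-site mutant (parent TEVp 0) is paired with a single-site variant of the 7-mer TEVs (canonical ENLYFQ|S). The substrate sits between flexible linkers in a Bxb1-sfGFP-TEVs-SsrA fusion, so cleavage stabilises Bxb1 and speeds flipping of a recombination array, read by NGS. The value is the raw area under the fraction-flipped curve over 0-4 h after rhamnose induction (AUC4h), with ≥20 reads per time point. It is not background-subtracted; inactive controls average about 0.047.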
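Further: Bxb1 expression induced with 0.2% (w/v) L-rhamnose at OD600 near 0.5, cultures sampled hourly, flipped fraction per protease–substrate barcode pair counted by paired-end Illumina sequencing.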

Row | Variant | area with substrate ENAYFQS | area with substrate ENCYFQS | area with substrate ENEYFQS | area with substrate ENFYFQS | area with substrate ENGYFQS | area with substrate ENHYFQS | area with substrate ENIYFQS | area with substrate ENQYFQS | area with substrate ENRYFQS | area with substrate ENSYFQS | area with substrate ENTYFQS | area with substrate ENVYFQS | area with substrate ENYYFQS | area with substrate ENDYFQS | area with substrate ENNYFQS | area with substrate ENPYFQS | area with substrate ENWYFQS | area with substrate ENKYFQS | area with substrate ENMYFQS
1 | M83N | 0.0524 | 0.0501 | 0.0694 | 0.0564 | 0.0752 | 0.0475 | 0.103 | 0.0498 | 0.0464 | 0.0516 | 0.0577 | 0.0547 | 0.0481 |  |  |  |  |  | 
2 | I84K | 0.0532 | 0.0505 | 0.0527 | 0.054 | 0.0597 | 0.0654 |  | 0.0517 |  | 0.0603 |  |  | 0.0516 | 0.0495 | 0.0521 | 0.0462 | 0.0502 |  | 
3 | I84M | 0.0658 | 0.0727 | 0.0529 | 0.0639 | 0.0679 | 0.0639 |  | 0.0568 | 0.043 | 0.057 |  | 0.0697 | 0.0529 | 0.0674 | 0.0684 | 0.0742 | 0.0567 | 0.0595 | 0.0709
4 | I84Y | 0.0567 | 0.0555 |  | 0.0438 | 0.0626 | 0.06 | 0.0618 |  |  | 0.0528 | 0.0374 | 0.0542 |  |  |  | 0.062 |  |  | 0.0388
5 | I85N | 0.0505 | 0.0423 | 0.0332 | 0.0454 |  | 0.0462 |  | 0.0484 | 0.0482 | 0.0394 | 0.0557 | 0.0336 |  | 0.0257 | 0.0496 | 0.0412 |  |  | 0.061
6 | I85S | 0.0519 | 0.0534 | 0.0355 | 0.0516 | 0.0335 | 0.0437 | 0.0527 | 0.049 |  | 0.0535 | 0.0432 | 0.0402 |  | 0.0432 |  | 0.0418 |  |  | 
7 | I86P | 0.0243 |  | 0.0511 |  | 0.0404 | 0.0337 | 0.0347 |  |  | 0.0416 |  |  |  | 0.032 | 0.0321 |  |  |  | 0.0372
8 | R87L | 0.0542 | 0.0706 | 0.0625 | 0.064 |  |  | 0.103 | 0.0618 | 0.0716 | 0.0537 | 0.034 |  |  | 0.0608 | 0.0612 | 0.0788 | 0.0634 |  | 
9 | P89G | 0.103 | 0.0719 | 0.0498 | 0.0536 | 0.0142 |  |  | 0.0718 |  |  | 0.0604 | 0.0735 | 0.0639 | 0.0583 |  |  |  |  | 
10 | P89R | 0.055 |  | 0.0431 | 0.0609 | 0.0649 | 0.0568 | 0.0859 | 0.07 | 0.053 | 0.0811 | 0.0716 | 0.0615 | 0.0387 |  | 0.056 |  | 0.0526 | 0.0436 | 
11 | P89T | 0.0462 |  | 0.0656 |  | 0.0585 | 0.0588 | 0.0541 |  |  | 0.0531 | 0.0798 | 0.0696 |  | 0.0532 |  |  | 0.0104 |  | 
12 | K90D | 0.0599 |  | 0.0639 |  | 0.0575 |  |  |  |  | 0.0586 |  | 0.0641 |  | 0.0639 |  | 0.0554 |  |  | 
13 | K90T | 0.0458 | 0.0643 |  | 0.0573 |  |  | 0.103 | 0.0591 | 0.0619 | 0.0466 | 0.066 | 0.181 |  | 0.0675 | 0.0613 |  | 0.0473 | 0.0535 | 
14 | D91G | 0.0636 | 0.0817 | 0.0694 | 0.0601 | 0.0536 |  |  | 0.0701 | 0.0504 | 0.0694 | 0.0699 | 0.085 | 0.0441 | 0.0501 | 0.0643 |  | 0.0759 |  | 0.0835
